Results from ChEMBL document CHEMBL4888484, “Replenishing the malaria drug discovery pipeline: Screening and hit evaluation of the MMV Hit Generation Library 1 (HGL1) against asexual blood stage Plasmodium falciparum ,using a nano luciferase reporter read-out” (2022).
The campaign covered roughly 150,000 compounds. About 540 (0.36%) showed an effect of 50% or more. The list shows a part of the results.

These compounds were tested on Plasmodium falciparum (assay: Primary screen in NF54 nanoGlo assay, in single point, at 2uM, 72h; a lower Z score goes with more inhibition). Details: timepoint 72 hour.
Format: functional, Erythrocyte
For `Cc1cc(CN(C)CC2(CO)CCC2)[nH]n1`, the “% Inhibition” value was 2% and the Z score was -0.3. `O=C(C1CCC(C(=O)N2CCCc3ccccc32)CC1)N1CCCc2ccccc21` (configuration not stated) was tested, and the “% Inhibition” value was -7% and the Z score was 0.75. `Cc1cc(C)n(CCCNc2nnc(C(C)(C)C)s2)n1` was tested, and the “% Inhibition” value was -11% and the Z score was 2.04. In the case of `NC(=O)[C@@H]1Cc2ccccc2N1S(=O)(=O)c1cc(C(=O)O)cc2c1CCC2`, the “% Inhibition” value is reported as -16% and the Z score is reported as 1.74. In the case of `CN(Cc1cccc(N(C)C)c1)C(=O)c1n[nH]c2c1CCC2`, the “% Inhibition” value is reported as -4% and the Z score is reported as 0.58. For `O=C(NC1CC1)C(c1ccc(F)cc1)N1CCCC1Cn1cccn1` (configuration not stated), the “% Inhibition” value was -4% and the Z score was 0.38. `O=S(=O)(NCC1(c2ccc(F)cc2)CC1)c1cccnc1` was tested, and the “% Inhibition” value was -7% and the Z score was 1.02. With `CCC(=O)N1CCC(c2nc(C)ccc2C(=O)N(C)C(C)C)CC1` the “% Inhibition” value was -8% and the Z score was 1.22. `COc1c(C)cc(C)cc1-c1cn(Cc2cccc(C(=O)N(C)C)c2)nn1` was tested, and the “% Inhibition” value was -1% and the Z score was 0.23. In the case of `Cc1cccc(C2C(C(=O)O)CC(=O)N2Cc2cccnc2)c1C` (configuration not stated), the “% Inhibition” value is reported as -1% and the Z score is reported as 0.17. `Cn1nc(C(=O)N2CCOCC2)cc1C(=O)Nc1ncn(Cc2ccc(Cl)cc2Cl)n1` was tested, and the “% Inhibition” value was 6% and the Z score was -0.75. `CC(C)c1ccc(C(=O)N(Cc2cccnc2)C2CCCCC2)c(=O)n1C` was tested, and the “% Inhibition” value was 16% and the Z score was -2.2. For `O=C(CCc1ccsc1)NCc1nnc2ccccn12`, the “% Inhibition” value was -1% and the Z score was 0.07. For `Cc1c([C@@H]2CCCN2c2ncnc(N)c2Cl)cnn1C`, the “% Inhibition” value was -3% and the Z score was 0.6. For `COc1cc(Cc2nnc(C(=O)NCCc3ccc(Cl)cc3)o2)cc(OC)c1OC`, the “% Inhibition” value was 1% and the Z score was -0.08. In the case of `O=C(NCC(F)(F)C(F)F)c1cnsn1`, the “% Inhibition” value is reported as -11% and the Z score is reported as 1.12. For `CN(Cc1cnc2ccccn12)[C@@H](C(N)=O)c1cccc(F)c1`, the “% Inhibition” value was 7% and the Z score was -0.66. With `Cc1ncsc1-c1nc(-c2cccs2)no1` the “% Inhibition” value was 7% and the Z score was -1.24. `CS(=O)(=O)CC1(CN2CCOC[C@@]23CCOC3)CC1` was tested, and the “% Inhibition” value was -9% and the Z score was 1.71. With `COCCN1CCN(Cc2cccc(C)c2)[C@H]2CS(=O)(=O)C[C@H]21` the “% Inhibition” value was -11% and the Z score was 2.19. `CCN1CCC(N(C)C(=O)c2cccc3[nH]c(C(F)F)nc23)CC1` was tested, and the “% Inhibition” value was -4% and the Z score was 0.38. `Cn1ncc(C(=O)N2CCNC(=O)C2(C)C)c1C(F)F` was tested, and the “% Inhibition” value was -5% and the Z score was 0.68. In the case of `Cc1cc(C(=O)NCc2cccnc2N2CCOCC2)ns1`, the “% Inhibition” value is reported as -9% and the Z score is reported as 1.45. For `CCCN1C(=O)c2cc(C(=O)NC(C)C)nn2C[C@@]1(C)C(=O)NC1CCCC1`, the “% Inhibition” value was 13% and the Z score was -1.49. With `O=C1c2cccnc2CN1CCCN1CCOCC1` the “% Inhibition” value was -8% and the Z score was 1.46. `Cc1ccc2c(c1)OCCN2CCCC(=O)O` was tested, and the “% Inhibition” value was -13% and the Z score was 1.64. With `C[C@H]1CN(c2ccnc(Cc3ccc(F)cc3)n2)CCCO1` the “% Inhibition” value was -12% and the Z score was 1.31. In the case of `CC(=O)N(CCN1CCCCC1)[C@H]1CCCN(Cc2ccc3c(c2)OCCO3)C1`, the “% Inhibition” value is reported as -14% and the Z score is reported as 1.91. For `CC(C)(C)c1nnc(CNC(=O)[C@@H]2CCCN2C(=O)c2ccccc2O)s1`, the “% Inhibition” value was 1% and the Z score was -0.12. For `CC(C)c1nsc(NC(=O)c2cccc(CN3C[C@H]4CC[C@@H](C3)N4)c2)n1`, the “% Inhibition” value was -6% and the Z score was 0.75. For `CCn1cc(CC(=O)N2CC[C@@]3(CCc4ccccc43)C2)nn1`, the “% Inhibition” value was 0% and the Z score was -0.05. `O=C1CN(C2CC2)C(=O)[C@H](c2ccccc2Br)N1` was tested, and the “% Inhibition” value was -13% and the Z score was 2.48. With `Cn1ccnc1CCNC(=O)c1ccc2c(c1)CCCC2` the “% Inhibition” value was -28% and the Z score was 2.44. In the case of `COc1ccc(/C=C(\NO)C(=O)O)cc1`, the “% Inhibition” value is reported as -6% and the Z score is reported as 0.83. In the case of `CC(=O)N1CCC(Oc2ccnc(C)n2)CC1`, the “% Inhibition” value is reported as 0% and the Z score is reported as 0.05. With `CCOCC(=O)NCC1(c2ccsc2)CCOCC1` the “% Inhibition” value was 8% and the Z score was -1.2. `C=CCN(C(=O)[C@@H](O)C1CCN(C(=O)OC(C)(C)C)CC1)C1CC1` was tested, and the “% Inhibition” value was -1% and the Z score was 0.23. `O=S(=O)(CCC1CC1)N1CCC[C@H](n2ccnn2)C1` was tested, and the “% Inhibition” value was -6% and the Z score was 0.95. In the case of `CCCC[C@H]1CN(CCNC(=O)Cn2cnnn2)Cc2ccccc2O1`, the “% Inhibition” value is reported as -4% and the Z score is reported as 0.54. For `COc1ccc(C(=O)C2C(c3ccc4c(c3)OCO4)NC(=O)NC2(O)C(F)(F)F)cc1` (configuration not stated), the “% Inhibition” value was 8% and the Z score was -1.42. In the case of `CCc1ccc(NC(=O)c2nnc(CN(C)C[C@H](O)CO)s2)cc1`, the “% Inhibition” value is reported as 0% and the Z score is reported as 0.03. For `CC(N)C1CCCN(C(=O)c2c[nH]nc2-c2ccc(F)c(Cl)c2)C1` (configuration not stated), the “% Inhibition” value was -5% and the Z score was 0.88. In the case of `Fc1ccc(C[C@@H]2NCCn3cccc32)cc1`, the “% Inhibition” value is reported as -1% and the Z score is reported as 0.16. With `Cc1ccc2c(c1)[C@@H](NC(=O)N(C)C1CCS(=O)(=O)CC1)CC(C)(C)O2` the “% Inhibition” value was -12% and the Z score was 1.92. `O=C(Nc1ccccc1Cl)N1CCC(c2ccsc2)CC1` was tested, and the “% Inhibition” value was -8% and the Z score was 1.19. `Cc1noc(C)c1CNc1cc(S(=O)(=O)N2CCOCC2)ccc1N1CCCC1` was tested, and the “% Inhibition” value was 5% and the Z score was -0.81. With `COc1cc(-c2cc(N3CCN(C)CC3)nc(N)n2)c(Cl)cn1` the “% Inhibition” value was -11% and the Z score was 1.22. In the case of `COc1ccc(Cc2nc3nccc(-c4ccc(F)cc4OC)n3n2)cc1`, the “% Inhibition” value is reported as 4% and the Z score is reported as -0.44. `COCc1cc(O)nc(N2CC[C@H](Nc3ncccn3)C2)n1` was tested, and the “% Inhibition” value was -13% and the Z score was 1.47. For `CN(c1ncnc2c1c(-c1ccccc1)cn2-c1ccccc1)C1CCCCC1`, the “% Inhibition” value was -16% and the Z score was 2.87. In the case of `CC[C@H](C)n1ncc(C(=O)NCCc2c[nH]c3ccccc23)c1C`, the “% Inhibition” value is reported as 6% and the Z score is reported as -0.58. For `O=C(CCc1ccc2c(c1)OCO2)N1CCCC1`, the “% Inhibition” value was -3% and the Z score was 0.4. In the case of `O=C(Cc1ccccc1)N[C@H]1CC(=O)N(c2ccc3c(c2)OCCO3)C1`, the “% Inhibition” value is reported as -6% and the Z score is reported as 1.16. In the case of `CCc1ccc(CN2CCN(C(=O)[C@@H]3CCC(=O)N3)CC2)s1`, the “% Inhibition” value is reported as -6% and the Z score is reported as 1.02. With `CN(C)S(=O)(=O)N(CCC1CCC1)c1ccccc1Br` the “% Inhibition” value was 2% and the Z score was -0.21. With `C[C@@H](C(=O)NCC1(c2ccccc2)CC1)n1ccnc1` the “% Inhibition” value was -4% and the Z score was 0.4.
